Patent US11999727B2 (Tango Therapeutics, Inc., priority 2020, dated 2024)

Legend:
[1] = biological target: T1, PRMT5 (Homo sapiens, UniProt O14744); test: PRMT5 biochemical IC50 assay with SAM as cofactor
T1 construct: purchased Viva (custom protein)

[2] = biological target: T1, PRMT5; test: PRMT5 biochemical IC50 assay with no cofactor
Source text: Table 1 indicates IC50 values (μM) against PRMT5 for exemplary compounds in the presence of SAM as cofactor, with no cofactor, and with MTA as cofactor, respectively (columns 4-6). […] Ki values can be calculated from the IC50 values as described in the Examples section. As detailed in the Examples section, for the assay performed in the presence of SAM, IC50=Ki×1.5 (Ki=IC50/1.5).

[3] = biological target: T1, PRMT5; test: PRMT5 biochemical IC50 assay with MTA as cofactor
[4] = tested on: HAP1 MTAP-deleted cell line; test: Viability assay, MTAP-deleted cell line; type: cell-based; details: Homo sapiens
Source text: Table 1 additionally indicates IC50 values in a viability assay for the MTAP-deleted cell line (column 10), indicating the effect of treatment with compound on cell survival.

[5] = read-out: No Cofactor/ rel IC50

T1 sequence (O14744 whole entry): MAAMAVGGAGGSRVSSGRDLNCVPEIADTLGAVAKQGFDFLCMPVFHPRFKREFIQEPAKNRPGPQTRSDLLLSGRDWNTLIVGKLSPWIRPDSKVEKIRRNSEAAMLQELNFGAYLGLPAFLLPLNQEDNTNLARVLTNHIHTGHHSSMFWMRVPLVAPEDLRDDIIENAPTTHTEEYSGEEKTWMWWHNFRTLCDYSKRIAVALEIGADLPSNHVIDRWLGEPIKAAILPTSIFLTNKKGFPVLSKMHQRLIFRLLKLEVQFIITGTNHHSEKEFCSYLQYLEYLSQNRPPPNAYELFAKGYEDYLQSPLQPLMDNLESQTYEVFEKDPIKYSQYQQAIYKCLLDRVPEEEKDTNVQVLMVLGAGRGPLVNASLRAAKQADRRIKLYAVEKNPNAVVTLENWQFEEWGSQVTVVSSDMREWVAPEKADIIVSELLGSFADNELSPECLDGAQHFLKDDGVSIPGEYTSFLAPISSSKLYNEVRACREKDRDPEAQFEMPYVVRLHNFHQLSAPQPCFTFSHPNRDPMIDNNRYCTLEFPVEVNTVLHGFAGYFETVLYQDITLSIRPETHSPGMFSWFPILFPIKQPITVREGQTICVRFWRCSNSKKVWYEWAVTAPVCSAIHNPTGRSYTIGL
T1 sequence (Q9BQA1 whole entry partner): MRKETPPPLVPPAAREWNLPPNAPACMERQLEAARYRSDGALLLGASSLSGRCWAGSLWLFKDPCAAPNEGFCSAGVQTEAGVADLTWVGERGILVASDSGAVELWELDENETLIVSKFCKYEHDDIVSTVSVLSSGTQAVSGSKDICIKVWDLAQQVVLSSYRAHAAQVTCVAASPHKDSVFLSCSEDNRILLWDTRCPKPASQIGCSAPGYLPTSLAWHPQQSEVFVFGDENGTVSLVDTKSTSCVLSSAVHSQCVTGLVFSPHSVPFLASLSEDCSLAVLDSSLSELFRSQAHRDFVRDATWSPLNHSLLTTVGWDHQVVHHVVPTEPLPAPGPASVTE

SMILES | IC50 [1] [nM] | IC50 ([2]; read-out: No Cofactor/rel IC50) [nM] | IC50 [3] [nM] | IC50 [4] [nM] | IC50 [2, 5] [nM]
Cc1cc(NC(=O)C(=O)N2CC(C)C(F)(F)C[C@@H]2c2cccc(Cl)c2)cnc1N (single isomer, unassigned) [Compound 1045] | > 500 | > 500 | > 500 | – | –
[2H]c1c([2H])c([C@H]2CC[C@H](C)CN2C(=O)C(=O)Nc2cncc(C(N)=O)c2)c([2H])c([2H])c1F [Compound 1062] | 50 to 500 | 50 to 500 | < 50 | – | –
C[C@@H]1CC[C@@H]([C@H]2C[C@H](O)C2)N(C(=O)C(=O)Nc2cncc(C(N)=O)c2)C1 (racemic) [Compound 413, rac-5-[[2-[(2R,5S)-2-(3-hydroxycyclobutyl)-5-methyl-1-piperidyl]-2-oxo-acetyl]amino]pyridine-3-carboxamide] | > 500 | > 500 | 50 to 500 | > 10000 | –
[2H][C@]1(c2ccc(F)cc2)CC[C@H](C)CN1C(=O)C(=O)Nc1cncc(C(N)=O)c1 [Compound 1065] | 50 to 500 | 50 to 500 | < 50 | – | –
Cc1cc(NC(=O)C(=O)N2C[C@@H](C)CC[C@@H]2c2ccc3c(c2)C(=O)NCC3)cnc1N (single isomer, unassigned) [Compound 1046] | > 500 | > 500 | > 500 | – | –
COc1ncc(NC(=O)C(=O)N2C[C@@H](C)C(F)(F)C[C@@H]2c2ccc(NS(C)(=O)=O)cc2)cc1C(N)=O (single isomer, unassigned) [Compound 1067] | 50 to 500 | 50 to 500 | 50 to 500 | – | –
O=C(Nc1cncc(C(=O)NO)c1)C(=O)N1CCCCC1c1ccccc1 (centres unmarked) [Compound 378, N-hydroxy-5-(2-oxo-2-(2-phenylpiperidin-1-yl)acetamido)nicotinamide] | > 500 | > 500 | 50 to 500 | – | –
COc1ncc(NC(=O)C(=O)N2C[C@H](C)C(F)(F)C[C@H]2c2ccc(NS(C)(=O)=O)cc2)cc1C(N)=O (single isomer, unassigned) [Compound 1052] | > 500 | > 500 | 50 to 500 | – | –
C[C@@H]1CC[C@@H](c2ccc(C3CCC3)cc2)N(C(=O)C(=O)Nc2cncc(C(N)=O)c2)C1 (racemic) [Compound 406, rac-5-{2-[(2R,5S)-2-(4-Cyclobutylphenyl)-5-methylpiperidin-1-yl]-2-oxoacetamido}pyridine-3-carboxamide] | 50 to 500 | 50 to 500 | 50 to 500 | 1000 to 10000 | –
Cc1cc(NC(=O)C(=O)N2C[C@H](C)C(F)(F)C[C@H]2c2ccc3scnc3c2)cnc1N (single isomer, unassigned) [Compound 1069] | > 500 | > 500 | > 500 | – | –
NC(=O)c1cncc(NC(=O)C(=O)N2CCCCC2c2cc[nH]c(=O)c2)c1 (racemic) [Compound 262, 5-[[2-oxo-2-[2-(2-oxo-1H-pyridin-4-yl)-1-piperidyl]acetyl]amino]pyridine-3-carboxamide] | > 500 | > 500 | 50 to 500 | > 10000 | –
NC(=O)c1cncc(NC(=O)C(=O)N2C[C@H](OC(F)F)CC[C@H]2c2ccccc2)c1 (racemic) [Compound 379, 5-[[2-[(2S,5R)-5-(Difluoromethoxy)-2-phenyl-1-piperidyl]-2-oxo-acetyl]amino]pyridine-3-carboxamide] | 50 to 500 | > 500 | 50 to 500 | > 10000 | –
C[C@@H]1CC[C@@H](c2ccc(OC3CCOCC3)cc2)N(C(=O)C(=O)Nc2cncc(C(N)=O)c2)C1 (racemic) [Compound 269, rac-5-{2-[(2R,5S)-5-Methyl-2-[4-(oxan-4-yloxy)phenyl]piperidin-1-yl]-2-oxoacetamido}pyridine-3-carboxamide] | 50 to 500 | > 500 | 50 to 500 | > 10000 | –
Cc1cc(NC(=O)C(=O)N2C[C@H](C)CC[C@H]2c2ccc3c(c2)C(=O)NCC3)cnc1N (single isomer, unassigned) [Compound 1073] | 50 to 500 | 50 to 500 | < 50 | – | –
C[C@@H]1CC[C@@H](c2cnc3cnn(C)c3c2)N(C(=O)C(=O)Nc2cncc(C(N)=O)c2)C1 (racemic) [Compound 178, rac-5-{2-[(2R,5S)-5-Methyl-2-{1-methyl-1H-pyrazolo[4,3-b]pyridin-6-yl}piperidin-1-yl]-2-oxoacetamido}pyridine-3-carboxamide] | > 500 | > 500 | 50 to 500 | > 10000 | –
C[C@@H]1CC[C@@H]([C@H]2C[C@@H](O)C2)N(C(=O)C(=O)Nc2cncc(C(N)=O)c2)C1 (racemic) [Compound 407, rac-5-[[2-[(2R,5S)-2-(3-hydroxycyclobutyl)-5-methyl-1-piperidyl]-2-oxo-acetyl]amino]pyridine-3-carboxamide] | 50 to 500 | > 500 | 50 to 500 | > 10000 | –
Cc1cc(NC(=O)C(=O)N2CC(C)C(F)(F)C[C@H]2c2cccc(Cl)c2)cnc1N (single isomer, unassigned) [Compound 1074] | 50 to 500 | < 50 | < 50 | – | –
COc1ncc(NC(=O)C(=O)N2CC(C)CCC2c2ccc3[nH]c(=O)ccc3n2)cc1C(N)=O (centres unmarked) [Compound 1077, 2-methoxy-5-[[2-[5-methyl-2-(6-oxo-5H-1,5-naphthyridin-2-yl)-1-piperidyl]-2-oxo-acetyl]amino]pyridine-3-carboxamide] | 50 to 500 | 50 to 500 | 50 to 500 | – | –
C[C@@H]1CC[C@@H](c2cc(F)c(F)c(F)c2)N(C(=O)C(=O)Nc2cncc(C(N)=O)c2)C1 (racemic) [Compound 403, rac-5-{2-[(2R,5S)-5-Methyl-2-(3,4,5-trifluorophenyl)piperidin-1-yl]-2-oxoacetamido}pyridine-3-carboxamide] | 50 to 500 | > 500 | 50 to 500 | > 10000 | –
CCc1cc(NC(=O)C(=O)N2CC(C)CCC2c2ccc3[nH]c(=O)ccc3n2)cnc1N (centres unmarked) [Compound 1078] | 50 to 500 | 50 to 500 | 50 to 500 | – | –
[2H][C@@]1(c2ccc(F)cc2)CC[C@@H](C)CN1C(=O)C(=O)Nc1cncc(C(N)=O)c1 [Compound 1064] | > 500 | > 500 | > 500 | – | –
CC(=O)N1CCC(c2cccc([C@H]3CC[C@H](C)CN3C(=O)C(=O)Nc3cncc(C)c3)c2)CC1 (racemic) [Compound 44, rac-2-((2R,5S)-2-(3-(1-acetylpiperidin-4-yl)phenyl)-5-methylpiperidin-1-yl)-N-(5-methylpyridin-3-yl)-2-oxoacetamide] | > 500 | – | 50 to 500 | > 10000 | > 500
Cc1cc(NC(=O)C(=O)N2C[C@H](C)CC[C@H]2C2CCNC(=O)C2)cnc1N (mixture of isomers) [Compound 156, N-(6-amino-5-methyl-3-pyridyl)-2-[(2R,5S)-5-methyl-2-(2-oxo-4-piperidyl)-1-piperidyl]-2-oxo-acetamide] | 50 to 500 | – | 50 to 500 | > 10000 | > 500
C[C@@H]1CC[C@@H](c2ccc3[nH]c(=O)ccc3n2)N(C(=O)C(=O)Nc2cncc(C(N)=O)c2)C1 (single isomer, unassigned) [Compound 1079] | 50 to 500 | < 50 | < 50 | – | –
[2H]c1c([2H])c([C@@H]2CC[C@@H](C)CN2C(=O)C(=O)Nc2cncc(C(N)=O)c2)c([2H])c([2H])c1F [Compound 1063] | > 500 | > 500 | > 500 | – | –
C[C@H]1CC[C@H](c2ccc3[nH]c(=O)ccc3n2)N(C(=O)C(=O)Nc2cncc(C(N)=O)c2)C1 (single isomer, unassigned) [Compound 1076] | > 500 | > 500 | > 500 | – | –
Cc1cc(NC(=O)C(=O)N2C[C@@H](C)C(F)(F)C[C@@H]2c2ccc3scnc3c2)cnc1N (single isomer, unassigned) [Compound 1049] | 50 to 500 | 50 to 500 | 50 to 500 | – | –
Cc1cc(NC(=O)C(=O)N2C[C@H](C(N)=O)CC[C@@H]2c2ccccc2)cnc1N (racemic) [Compound 328] | > 500 | > 500 | 50 to 500 | > 10000 | –
[2H]c1c([2H])c([C@]2([2H])CC[C@@H](C)CN2C(=O)C(=O)Nc2cncc(C(N)=O)c2)c([2H])c([2H])c1F [Compound 1066] | > 500 | > 500 | > 500 | – | –
[2H]c1c([2H])c([C@@]2([2H])CC[C@H](C)CN2C(=O)C(=O)Nc2cncc(C(N)=O)c2)c([2H])c([2H])c1F [Compound 1060] | 50 to 500 | 50 to 500 | < 50 | – | –
